Data as given in article PMC9911399, “Two distinct binding modes provide the RNA-binding protein RbFox with extraordinary sequence specificity”.
Numbering of substitutions follows the chain as printed; changes in the protein carry UniProt numbers. The list shows a part of the results.

T1: RBFOX1 RRM RbFoxmut (Fox-RRM*) (Homo sapiens, UniProt Q9NWB1 109-208, R118D;E147R;N151S;E152T)
T1 sequence: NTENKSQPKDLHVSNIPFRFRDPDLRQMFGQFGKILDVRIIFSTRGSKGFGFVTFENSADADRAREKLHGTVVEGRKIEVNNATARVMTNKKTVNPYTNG

B1: CCACACC (DNA:RNA)
RNA: GGGAGACCGGAAUUCAGAUUGUCCCCACACCUUAAAUCCCGUCGUAGCCACCA
DNA 1: CAATCTGAATTCCGGTCTCCC
DNA 2: TGGTGGCTACGACGGGATT
B2: CGAAUAG (DNA:RNA)
RNA: B1 RNA with C26G, C28A, A29U, C30A, C31G
DNA 1: CAATCTGAATTCCGGTCTCCC
DNA 2: TGGTGGCTACGACGGGATT
B3: CCACCGG (DNA:RNA)
RNA: B1 RNA with A29C, C30G, C31G
DNA 1: CAATCTGAATTCCGGTCTCCC
DNA 2: TGGTGGCTACGACGGGATT
B4: AUGCGGA (DNA:RNA)
RNA: B1 RNA with C25A, C26U, A27G, A29G, C30G, C31A
DNA 1: CAATCTGAATTCCGGTCTCCC
DNA 2: TGGTGGCTACGACGGGATT
B5: GGUCGGG (DNA:RNA)
RNA: B1 RNA with C25G, C26G, A27U, A29G, C30G, C31G
DNA 1: CAATCTGAATTCCGGTCTCCC
DNA 2: TGGTGGCTACGACGGGATT
B6: AAUGAAA (DNA:RNA)
RNA: B1 RNA with C25A, C26A, A27U, C28G, C30A, C31A
DNA 1: CAATCTGAATTCCGGTCTCCC
DNA 2: TGGTGGCTACGACGGGATT
B7: GAGUUCU (DNA:RNA)
RNA: B1 RNA with C25G, C26A, A27G, C28U, A29U, C31U
DNA 1: CAATCTGAATTCCGGTCTCCC
DNA 2: TGGTGGCTACGACGGGATT
B8: UAUAGUU (DNA:RNA)
RNA: GGGAGACCGGAAUUCAGAUUGUCCUAUAGUUUUAAAUCCCGUCGUAGCCACCA
DNA 1: CAATCTGAATTCCGGTCTCCC
DNA 2: TGGTGGCTACGACGGGATT
B9: GCGGGUG (DNA:RNA)
RNA: B8 RNA with U25G, A26C, U27G, A28G, U31G
DNA 1: CAATCTGAATTCCGGTCTCCC
DNA 2: TGGTGGCTACGACGGGATT
B10: CUAACGC (DNA:RNA)
RNA: B1 RNA with C26U, C28A, A29C, C30G
DNA 1: CAATCTGAATTCCGGTCTCCC
DNA 2: TGGTGGCTACGACGGGATT
B11: CACUGUG (DNA:RNA)
RNA: B8 RNA with U25C, U27C, A28U, U31G
DNA 1: CAATCTGAATTCCGGTCTCCC
DNA 2: TGGTGGCTACGACGGGATT
B12: AUUCGAG (DNA:RNA)
RNA: B8 RNA with U25A, A26U, A28C, U30A, U31G
DNA 1: CAATCTGAATTCCGGTCTCCC
DNA 2: TGGTGGCTACGACGGGATT
B13: AGUUCCU (DNA:RNA)
RNA: B8 RNA with U25A, A26G, A28U, G29C, U30C
DNA 1: CAATCTGAATTCCGGTCTCCC
DNA 2: TGGTGGCTACGACGGGATT
B14: GGUCGUG (DNA:RNA)
RNA: B8 RNA with U25G, A26G, A28C, U31G
DNA 1: CAATCTGAATTCCGGTCTCCC
DNA 2: TGGTGGCTACGACGGGATT
B15: CUCGAAU (DNA:RNA)
RNA: B1 RNA with C26U, A27C, C28G, C30A, C31U
DNA 1: CAATCTGAATTCCGGTCTCCC
DNA 2: TGGTGGCTACGACGGGATT
B16: CUAGUUA (DNA:RNA)
RNA: B1 RNA with C26U, C28G, A29U, C30U, C31A
DNA 1: CAATCTGAATTCCGGTCTCCC
DNA 2: TGGTGGCTACGACGGGATT
B17: UUCUGAG (DNA:RNA)
RNA: B8 RNA with A26U, U27C, A28U, U30A, U31G
DNA 1: CAATCTGAATTCCGGTCTCCC
DNA 2: TGGTGGCTACGACGGGATT
B18: UAGGAGA (DNA:RNA)
RNA: B8 RNA with U27G, A28G, G29A, U30G, U31A
DNA 1: CAATCTGAATTCCGGTCTCCC
DNA 2: TGGTGGCTACGACGGGATT
B19: CUCCCGC (DNA:RNA)
RNA: B1 RNA with C26U, A27C, A29C, C30G
DNA 1: CAATCTGAATTCCGGTCTCCC
DNA 2: TGGTGGCTACGACGGGATT
B20: CACUCUA (DNA:RNA)
RNA: B8 RNA with U25C, U27C, A28U, G29C, U31A
DNA 1: CAATCTGAATTCCGGTCTCCC
DNA 2: TGGTGGCTACGACGGGATT
B21: CGGUUCC (DNA:RNA)
RNA: B1 RNA with C26G, A27G, C28U, A29U
DNA 1: CAATCTGAATTCCGGTCTCCC
DNA 2: TGGTGGCTACGACGGGATT
B22: GCGAGAA (DNA:RNA)
RNA: B8 RNA with U25G, A26C, U27G, U30A, U31A
DNA 1: CAATCTGAATTCCGGTCTCCC
DNA 2: TGGTGGCTACGACGGGATT
B23: AGUCUCA (DNA:RNA)
RNA: B1 RNA with C25A, C26G, A27U, A29U, C31A
DNA 1: CAATCTGAATTCCGGTCTCCC
DNA 2: TGGTGGCTACGACGGGATT
B24: UACGACU (DNA:RNA)
RNA: B8 RNA with U27C, A28G, G29A, U30C
DNA 1: CAATCTGAATTCCGGTCTCCC
DNA 2: TGGTGGCTACGACGGGATT
B25: ACCGUUC (DNA:RNA)
RNA: B1 RNA with C25A, A27C, C28G, A29U, C30U
DNA 1: CAATCTGAATTCCGGTCTCCC
DNA 2: TGGTGGCTACGACGGGATT
B26: CACCGCU (DNA:RNA)
RNA: B1 RNA with C26A, A27C, A29G, C31U
DNA 1: CAATCTGAATTCCGGTCTCCC
DNA 2: TGGTGGCTACGACGGGATT
B27: UCGGUGA (DNA:RNA)
RNA: B1 RNA with C25U, A27G, C28G, A29U, C30G, C31A
DNA 1: CAATCTGAATTCCGGTCTCCC
DNA 2: TGGTGGCTACGACGGGATT
B28: GAGUGGU (DNA:RNA)
RNA: B8 RNA with U25G, U27G, A28U, U30G
DNA 1: CAATCTGAATTCCGGTCTCCC
DNA 2: TGGTGGCTACGACGGGATT
B29: UAAACUG (DNA:RNA)
RNA: B8 RNA with U27A, G29C, U31G
DNA 1: CAATCTGAATTCCGGTCTCCC
DNA 2: TGGTGGCTACGACGGGATT
B30: AGCUACG (DNA:RNA)
RNA: B1 RNA with C25A, C26G, A27C, C28U, C31G
DNA 1: CAATCTGAATTCCGGTCTCCC
DNA 2: TGGTGGCTACGACGGGATT
B31: CUUGUGC (DNA:RNA)
RNA: B1 RNA with C26U, A27U, C28G, A29U, C30G
DNA 1: CAATCTGAATTCCGGTCTCCC
DNA 2: TGGTGGCTACGACGGGATT

What follows are binders tested against T1, RBFOX1 RRM RbFoxmut (Fox-RRM*) (assay: EMSA; HiTS-Eq, 1 nM pool, 10 min; buffer printed only for the single-RNA assays: 10 mM Tris pH 7.5, 150 mM NaCl, 3.4 mM EDTA, 0.001% NP-40, 30 C). Details: tags: His6 N-terminal (pET28a); label: 5' 32P.
Procedure, shortened: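 These values rest on relative association constants, computed from read-count changes of each RNA species versus the control reaction and normalised to the cognate motif. Reads came from free RNA recovered by 8% native PAGE after purified RbFox RRM (wild type or mutant) at increasing concentrations was equilibrated for 10 min in 50 µL with 1 nM of a 5′-radiolabelled pool with 7 randomized nucleotides and DNA-annealed flanks.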
In the case of B1, the binding signal is reported as 0.117 KA relative to UGCAUGU. For B2, the binding signal was 0.118 KA relative to UGCAUGU. For B3, the binding signal was 0.0663 KA relative to UGCAUGU. With B4 the binding signal was 0.1 KA relative to UGCAUGU. With B5 the binding signal was 0.0602 KA relative to UGCAUGU. With B6 the binding signal was 0.0929 KA relative to UGCAUGU. In the case of B7, the binding signal is reported as 0.0638 KA relative to UGCAUGU. B8 was tested, and the binding signal was 0.0903 KA relative to UGCAUGU. For B9, the binding signal was 0.194 KA relative to UGCAUGU. In the case of B10, the binding signal is reported as 0.0809 KA relative to UGCAUGU. With B11 the binding signal was 0.15 KA relative to UGCAUGU. For B12, the binding signal was 0.118 KA relative to UGCAUGU. For B13, the binding signal was 0.0589 KA relative to UGCAUGU. With B14 the binding signal was 0.242 KA relative to UGCAUGU. For B15, the binding signal was 0.106 KA relative to UGCAUGU. B16 was tested, and the binding signal was 0.118 KA relative to UGCAUGU. In the case of B17, the binding signal is reported as 0.0858 KA relative to UGCAUGU. For B18, the binding signal was 0.0716 KA relative to UGCAUGU. B19 was tested, and the binding signal was 0.0628 KA relative to UGCAUGU. In the case of B20, the binding signal is reported as 0.113 KA relative to UGCAUGU. For B21, the binding signal was 0.104 KA relative to UGCAUGU. B22 was tested, and the binding signal was 0.0999 KA relative to UGCAUGU. For B23, the binding signal was 0.102 KA relative to UGCAUGU. In the case of B24, the binding signal is reported as 0.0741 KA relative to UGCAUGU. With B25 the binding signal was 0.0746 KA relative to UGCAUGU. For B26, the binding signal was 0.0954 KA relative to UGCAUGU. B27 was tested, and the binding signal was 0.133 KA relative to UGCAUGU. With B28 the binding signal was 0.147 KA relative to UGCAUGU. B29 was tested, and the binding signal was 0.0614 KA relative to UGCAUGU. B30 was tested, and the binding signal was 0.153 KA relative to UGCAUGU. In the case of B31, the binding signal is reported as 0.119 KA relative to UGCAUGU.
